According to PubChem BioAssay AID588855 (National Center for Advancing Translational Sciences (NCATS), 2011):
In all, about 410,000 compounds went through this assay and about 5,000 (1.2%) were called active. This list was built around the results that the source calls inconclusive (neither active nor inactive); the mix of calls is not that of the screen. Calls follow the shape of the dose curve; as a rule, active = well fitted inhibition curve with a large enough effect; inconclusive = small, poorly fitted or top-dose-only effect; inactive = no such curve, though single readings can be large or run the other way. Potencies beside an inconclusive call are fits to weak or partial responses and may not hold up.

test: qHTS for Inhibitors of TGF-b; details: HepG2 CAGA-GFP TGF-b/SMAD3 reporter, GFP fluorescence, 18 h, TGF-beta stimulated, 500 pg/mL final; series mostly up to 46.1 µM; also: nearly all actives have a fitted effect of over 65% in size
How it was run: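 Per well, imaged GFP fluorescence of HEPG2 CAGA-GFP cells gives the signal; cells get compound, then TGF-beta (500 pg/mL final), 18 h at 37 degrees C; %Activity versus -TGF-beta and +DMSO controls.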
Potency is read from the fitted curve at half-maximal effect; tags tell the direction and shape of the fitted curve.

Row | SMILES | Potency
1 | COc1ccc(/C=C/C(=O)c2ccc(O)cc2)cc1COc1ccc(F)cc1 | inconclusive: 22.4 µM [inhibitor, single point]
2 | COc1cc(NC(=O)Cn2c(-c3ccccc3)cc(C(C)=O)c2C)cc(OC)c1 | inactive
3 | CCC1=C(OC(=O)N(CC)CC)N2C(=O)OC(=NCC3CC3)[C@]2(Cc2ccccc2)[C@H]2C1=CC[C@H]1C(=O)N(CC(=O)OC)C(=O)[C@H]12 | inconclusive: 6.31 µM [inhibitor, single point]
4 | COc1cc2c(cc1NC(=O)COC(=O)C1CC(=O)N(Cc3ccco3)C1)oc1ccccc12 (stereo not drawn) | inactive
5 | CCOC(=O)c1cc2c(ccn2C)n1CC(=O)N1CCN(c2cccc(C(F)(F)F)c2)CC1 | inactive
6 | CCN(CC)CCCNC(=O)c1cc2c(Cl)nc3ccccc3c2s1 | inconclusive: 35.5 µM [inhibitor, single point]
7 | CC1(C)CC(=O)C=C(c2ccc(F)cc2OCc2ccccc2)C1 | inconclusive: 8.91 µM [inhibitor, partial curve, poor fit]
8 | CN(CCNC(=O)c1cc2c(-c3ccccc3F)nn(C)c2s1)C1CCCCC1 | inconclusive: 35.5 µM [inhibitor, single point]
9 | CC1(O)c2ccccc2C(=O)N1CCc1ccccc1F (stereo not drawn) | inconclusive: 14.1 µM [inhibitor, partial curve, poor fit]
10 | CCCCNc1c(-c2ccc(SC(C)CC)c(OC)c2)nc2ccc(Cl)cn12 (stereo not drawn) | inconclusive: 35.5 µM [inhibitor, single point]
11 | CCCc1cnc2c(c1SCC(=O)Nc1ccc([N+](=O)[O-])cc1)c(=O)n(C)c(=O)n2C | inactive
12 | CNC(=O)/C(C#N)=C/c1ccc(-c2ccccc2[N+](=O)[O-])o1 | inactive
13 | CCCC(C(=O)NCc1ccco1)N(C(=O)CNS(=O)(=O)c1ccc(Cl)cc1)C1CCCC1 (stereo not drawn) | inconclusive: 7.08 µM [inhibitor, partial curve]
14 | CCCCCCCSc1ncnc2[nH]ncc12 | inconclusive: 35.5 µM [inhibitor, single point]
15 | COc1ccc(NC(C)=O)cc1NC(=O)c1cccc(C(F)(F)F)c1 | inconclusive: 2 µM [inhibitor, partial curve, poor fit]
16 | O=C(Oc1ccc(Cl)cc1)N1CCCCC1 | inconclusive: 5.62 µM [inhibitor, single point]
17 | O=C(c1ccc(Br)cc1)c1cc([N+](=O)[O-])ccc1N1CCOCC1 | inconclusive: 7.94 µM [inhibitor, partial curve, poor fit]
18 | Cc1cc(Cl)c2oc(C(=O)N3CCN(c4cnccn4)CC3)c(C)c2c1 | inactive
19 | COc1cccc(CC2(CO)CCCN(Cc3ccc(C)s3)C2)c1 (stereo not drawn) | inactive
20 | Nn1c(Cc2cccc3ccccc23)nnc1SC1CCOC1=O (stereo not drawn) | inconclusive: 35.5 µM [inhibitor, single point]
21 | COc1cc(C(=O)Oc2cc(N)n(S(=O)(=O)c3ccc(F)cc3)n2)cc(OC)c1OC | inconclusive: 10 µM [inhibitor, single point]
22 | O=C(Nc1ccc([N+](=O)[O-])cc1Cl)c1cc(Br)ccc1O | inconclusive: 0.562 µM [inhibitor, full curve]

Row | SMILES | Potency
23 | CCC(C)(C)n1nnnc1CN(Cc1ccc(Cl)cc1)Cc1ccco1 | inconclusive: 10 µM [inhibitor, partial curve]
24 | O=C(Nc1ccccc1C(=O)NC(Cc1c[nH]c2ccccc12)C(=O)O)c1ccco1 (stereo not drawn) | inconclusive: 3.16 µM [inhibitor, single point]
25 | O=C(CNC(c1ccccc1)c1ccccc1)Nc1cc([N+](=O)[O-])ccc1Cl | inconclusive: 5.62 µM [inhibitor, single point]
26 | CCOC(=O)C1Nc2ccc(Br)cc2C2C=CCC12 (stereo not drawn) | inconclusive: 12.6 µM [inhibitor, single point]
27 | CC(C)C(=O)N1CCN(c2ccccc2NC(=O)c2ccc([N+](=O)[O-])o2)CC1 | inconclusive: 22.4 µM [inhibitor, single point]
28 | Cc1nn(-c2ccc(Cl)cc2Cl)c(=O)c2ccccc12 | inconclusive: 35.5 µM [inhibitor, single point]
29 | Cc1cc(C)cc(NC(=O)CN2C(=O)CSc3ccc(S(=O)(=O)N(C)C)cc32)c1 | inconclusive: 15.8 µM [inhibitor, single point]
30 | CCOC(=O)c1c(C)oc2ncnc(Nc3ccc(F)cc3Cl)c12 | inactive
31 | S=C(NCCCN1CCOCC1)N1CCN(c2nc(-c3ccccc3)cs2)CC1 | inactive
32 | Cc1ccc(CN2CCNC(=O)C2CC(=O)N(C)C2CCOCC2)cc1 (stereo not drawn) | inconclusive: 5.62 µM [inhibitor, single point]
33 | COc1ccccc1NS(=O)(=O)c1cc(C(=O)NCC(c2ccco2)N(C)C)ccc1C (stereo not drawn) | inactive
34 | CC(NCC(=O)Nc1ccccc1C(=O)NC1CC1)c1ccc(S(C)(=O)=O)cc1 (stereo not drawn) | inactive
35 | COc1ccc(Br)cc1C1C2C=CCC(C)C2C(=O)N1Cc1ccccc1 (stereo not drawn) | inconclusive: 35.5 µM [inhibitor, single point]
36 | COc1ccccc1NS(=O)(=O)c1cccc(C(=O)N/N=C/c2c(C)nn(-c3ccccc3)c2N2CCCC2)c1 | inactive
37 | Cc1ccc(C)c(N2CCN(C(=O)c3cc4ccc5cccnc5c4[nH]3)CC2)c1 | active: 15.8 µM
38 | CCN(CCCNC(=O)CNC(=O)c1nn(-c2ccc(OC)cc2OC)c(=O)c2ccccc12)c1cccc(C)c1 | inconclusive: 35.5 µM [inhibitor, single point]
39 | COc1ccc(C(=O)C2CCCN(C(=O)c3c4c(nn3C)CCCC4)C2)cc1F (stereo not drawn) | inactive
40 | Cc1cccc2c1N(CCCOc1ccccc1)C(=O)C2=O | inconclusive: 14.1 µM [inhibitor, single point]
41 | O=C(Nc1nc(-c2ccccc2)cs1)C1CCCO1 (stereo not drawn) | inconclusive: 0.794 µM [inhibitor, full curve, poor fit]
42 | CCOc1ccc(NC(=O)C2CCCN(c3c(CC)c(C)nc4ncnn34)C2)cc1 (stereo not drawn) | inconclusive: 35.5 µM [inhibitor, single point]
43 | CCCn1c(NCc2ccco2)nc2ccccc21 | inactive
